# Experimental data from patent US10501552B2, “Multivalent molecules comprising DR5-binding domains” (MacroGenics, Inc., priority 2015, dated 2019).
# How the values were obtained:
# 22RV1 = experiment: […]-GLO cell viability assay with vorinostat; type: cell-based; settings: 22RV1 (Prostate); 1 μg/ml + 10 μM Vorinostat
# A549 = experiment: […]-GLO cell viability assay with vorinostat; type: cell-based, human; settings: A549 (Lung); 1 μg/ml + 10 μM Vorinostat
# SKOV3 = experiment: […]-GLO cell viability assay with vorinostat; type: cell-based; settings: SKOV3 (Ovary); 1 μg/ml + 1 μM Vorinostat
# MDA-MB-361 = experiment: […]-GLO cell viability assay with vorinostat; type: cell-based; settings: MDA-MB-361 (Breast); 1 μg/ml + 10 μM Vorinostat
# Calu3 = experiment: […]-GLO cell viability assay with vorinostat; type: cell-based; settings: Calu3 (Lung); 1 μg/ml + 1 μM Vorinostat
# LNCap = experiment: […]-GLO cell viability assay with vorinostat; type: cell-based, human; settings: LNCap (Prostate); 1 μg/ml + 10 μM Vorinostat
# AsPC1 = experiment: […]-GLO cell viability assay with vorinostat; type: cell-based; settings: AsPC1 (Pancreas); 1 μg/ml + 1 μM Vorinostat
# ES2 = experiment: […]-GLO cell viability assay with vorinostat; type: cell-based; settings: ES2 (Ovary); 1 μg/ml + 10 μM Vorinostat
# COLO205 = experiment: […]-GLO cell viability assay with vorinostat; type: cell-based; settings: for Average % Ctrl: one day
# Description: For the first study COLO205 cells were plated at 2×10^4 cells/well (in 96-well plates), and incubated overnight in F12/DMEM media supplemented with 10% FBS. […] Cell viability was determined using Promega […]-GLO® Luminescent Cell Viability Assay (Cat # G5430) essentially as described in the manufacturer's instructions to assay the amount of ATP present, which is a measure of the number of viable cells in the culture. Briefly, an […]-GLO® Reagent was added to the wells and mixed for two minutes to induce lysis and the luminescence was read in a in PerkinElmer EnVision multilabel plate reader.
# Cell viability of cells treated with the test articles is normalized to the corresponding negative control (medium±vorinostat) which is set to 100% and reported in Table 12 as % of control for each test agent alone or % control for each test agent in combination with vorinostat. % of control values less than 100% indicate a reduction in viability and reflect the cytotoxicity of the test article alone or in combination with vorinostat.
# The Net Gain (Average % Growth Inhibition)=% Medium Ctrl (10% FBS)−% Medium Ctrl (1/10 μM vorinostat), and represents increased cytotoxicity of the test article in combination with vorinostat over cells treated with vorinostat alone.
# HPAFII = experiment: […]-GLO cell viability assay with vorinostat; type: cell-based; settings: HPAFII (Pancreas); 1 μg/ml + 10 μM Vorinostat
# BT474 = experiment: […]-GLO cell viability assay with vorinostat; type: cell-based; settings: BT474 (Breast); 1 μg/ml + 10 μM Vorinostat
# PC3 = experiment: […]-GLO cell viability assay with vorinostat; type: cell-based; settings: PC3 (Prostate); 1 μg/ml + 1 μM Vorinostat
# Hs746T = experiment: […]-GLO cell viability assay with vorinostat; type: cell-based; settings: Hs746T (Stomach); 1 μg/ml + 10 μM Vorinostat
# SKBR3 = experiment: […]-GLO cell viability assay with vorinostat; type: cell-based, human; settings: SKBR3 (Breast); 1 μg/ml + 1 μM Vorinostat
# DU145 = experiment: […]-GLO cell viability assay with vorinostat; type: cell-based, human; settings: DU145 (Prostate); 1 μg/ml + 10 μM Vorinostat
# NCI-N87 = experiment: […]-GLO cell viability assay with vorinostat; type: cell-based; settings: NCI-N87 (Stomach); 1 μg/ml + 1 μM Vorinostat
# MDA-MB-175VII = experiment: […]-GLO cell viability assay with vorinostat; type: cell-based; settings: MDA-MB-175VII (Breast); 1 μg/ml + 1 μM Vorinostat
# 786O = experiment: […]-GLO cell viability assay with vorinostat; type: cell-based; settings: 786O (Kidney); 1 μg/ml + 1 μM Vorinostat
# MCF7 = experiment: […]-GLO cell viability assay with vorinostat; type: cell-based; settings: MCF7 (Breast); 1 μg/ml + 10 μM Vorinostat
# Hs700T = experiment: […]-GLO cell viability assay with vorinostat; type: cell-based; settings: Hs700T (Pancreas); 1 μg/ml + 1 μM Vorinostat
# COLO205 cells = experiment: COLO205 xenograft tumor model; type: in vivo, mice
# Description: Briefly, female hCD16A FOX N1 mice (n=7/group) were implanted subcutaneously (SC) with 5 million COLO205 cells suspended in 200 μL of Ham's F12 medium mixed 1:1 with Matrigel on Day 0. The tumors were measured every 3-4 days with calipers. On Study Day 3, the mice were randomized based on tumor size and treated twice a week (intravenous (IV) injection) with the indicated dose levels of test article or vehicle (sterile saline containing 0.5% bovine serum albumin). Tumor volume was monitored over the course of the study and is plotted in FIG. 21 as a group mean±SEM.
# [1] = Vorinostat 0 μM, % Medium Ctrl (10% FBS), 10 ng/ml tetravalent molecule or 1 μg/ml DR5 mAb
# [2] = Vorinostat 0.1 μM, normalized to medium + vorinostat
# [3] = Vorinostat 1 μM, normalized to medium + vorinostat
Molecule,Net Gain (Average % Growth Inhibition) (22RV1) [%],Net Gain (Average % Growth Inhibition) (A549) [%],Net Gain (Average % Growth Inhibition) (SKOV3) [%],Net Gain (Average % Growth Inhibition) (MDA-MB-361) [%],Net Gain (Average % Growth Inhibition) (Calu3) [%],Net Gain (Average % Growth Inhibition) (LNCap) [%],Net Gain (Average % Growth Inhibition) (AsPC1) [%],Net Gain (Average % Growth Inhibition) (ES2) [%],Average % Ctrl (COLO205; [1]) [%],Net Gain (Average % Growth Inhibition) (COLO205; Vorinostat 0.1 μM) [%],Average % Ctrl (COLO205; [2]) [%],Net Gain (Average % Growth Inhibition) (COLO205; Vorinostat 1 μM) [%],Average % Ctrl (COLO205; [3]) [%],Net Gain (Average % Growth Inhibition) (HPAFII) [%],Net Gain (Average % Growth Inhibition) (BT474) [%],Net Gain (Average % Growth Inhibition) (PC3) [%],Net Gain (Average % Growth Inhibition) (Hs746T) [%],Net Gain (Average % Growth Inhibition) (SKBR3) [%],Net Gain (Average % Growth Inhibition) (DU145) [%],Net Gain (Average % Growth Inhibition) (NCI-N87) [%],further results
"DR5 mAb 2 × DR5 mAb 2 Fc diabody: monospecific tetravalent E-coil/K-coil Fc diabody, wild-type IgG1 Fc; chains SEQ ID NO:134 and 136 (protein, First Polypeptide Chain of an Exemplary DR5 mAb 2 x DR5 mAb 2 Fc diabody; Second Polypeptide Chain of an Exemplary DR5 mAb 2 x DR5 mAb 2 Fc diabody) chain 1: DIVMTQSHKFMSTSVGDRVSITCKASQDVNTAVAWYQQKPGQSPKLLIYWASTRHTGVPDRFTGSGSGTDYTLTIKSVQAEDLTLYYCQQHYITPWTFGGGTKLEIKGGGSGGGGKVQLQQSGAELVKPGASVKLSCKASGYTFTEYILHWVKQKSGQGLEWIGWFYPGNNNIKYNEKFKDKATLTADKSSSTVYMELSRLTSEDSAVYFCARHEQGPGYFDYWGQGTTLTVSSASTKGEVAACEKEVAALEKEVAALEKEVAALEKL[sequence of human IgG1 Fc with C220S (EU numbers) omitted] chain 2: DIVMTQSHKFMSTSVGDRVSITCKASQDVNTAVAWYQQKPGQSPKLLIYWASTRHTGVPDRFTGSGSGTDYTLTIKSVQAEDLTLYYCQQHYITPWTFGGGTKLEIKGGGSGGGGKVQLQQSGAELVKPGASVKLSCKASGYTFTEYILHWVKQKSGQGLEWIGWFYPGNNNIKYNEKFKDKATLTADKSSSTVYMELSRLTSEDSAVYFCARHEQGPGYFDYWGQGTTLTVSSASTKGKVAACKEKVAALKEKVAALKEKVAALKE",7.45,20.29,55.49,62.67,13.22,14.37,12.30,74.12,75.0,24,50.8,29,45.6,37.51,54.94,10.85,22.05,34.85,3.88,36.43,Net Gain (Average % Growth Inhibition) (MDA-MB-175VII): 15.11%; Net Gain (Average % Growth Inhibition) (786O): 18.24%; Net Gain (Average % Growth Inhibition) (MCF7): 8.76%; Net Gain (Average % Growth Inhibition) (Hs700T): 48.54%
"DR5 mAb 1 × DR5 mAb 1 Fc diabody (AA): monospecific tetravalent Fc diabody, L234A/L235A Fc; chains SEQ ID NO:132 and 130 (protein, First Polypeptide Chain of an Exemplary DR5 mAb 1 x DR5 mAb 1 Fc diabody L234A/L235A; Second Polypeptide Chain of an Exemplary DR5 mAb 1 x DR5 mAb 1 Fc diabody) chain 1: DIVLTQSPASLAVSLGQRATISCRASKSVSSSGYSYMHWYQQKPGQPPKVLIFLSSNLDSGVPARFSGSGSGTDFTLNIHPVEDGDAATYYCQHSRDLPPTFGGGTKLEIKGGGSGGGGEVKFLESGGGLVQPGGSLKLSCVASGFDFSRYWMSWVRQAPGKGLEWIGEINPDSNTINYTPSLKDKFIISRDNAKNTLYLQMTKVRSEDTALYYCTRRAYYGNPAWFAYWGQGTLVTVSAASTKGEVAACEKEVAALEKEVAALEKEVAALEKL[sequence of human IgG1 Fc with changes omitted] chain 2: DIVLTQSPASLAVSLGQRATISCRASKSVSSSGYSYMHWYQQKPGQPPKVLIFLSSNLDSGVPARFSGSGSGTDFTLNIHPVEDGDAATYYCQHSRDLPPTFGGGTKLEIKGGGSGGGGEVKFLESGGGLVQPGGSLKLSCVASGFDFSRYWMSWVRQAPGKGLEWIGEINPDSNTINYTPSLKDKFIISRDNAKNTLYLQMTKVRSEDTALYYCTRRAYYGNPAWFAYWGQGTLVTVSAASTKGKVAACKEKVAALKEKVAALKEKVAALKE",–,–,–,–,–,–,–,–,–,–,–,–,–,–,–,–,–,–,–,–,"tumor regression (COLO205 cells; 0.5 and 0.05 mg/kg treatment groups): regress; tumor growth (tumor volume) (COLO205 cells; IV twice a week, 0.5, 0.05, 0.005 mg/kg): dramatically inhibit tumor growth"
"DR5 mAb 1 × DR5 mAb 1 Fc diabody: monospecific tetravalent E-coil/K-coil Fc diabody, wild-type IgG1 Fc; chains SEQ ID NO:128 and 130 (protein, First Polypeptide Chain of an Exemplary DR5 mAb 1 x DR5 mAb 1 Fc diabody; Second Polypeptide Chain of an Exemplary DR5 mAb 1 x DR5 mAb 1 Fc diabody) chain 1: DIVLTQSPASLAVSLGQRATISCRASKSVSSSGYSYMHWYQQKPGQPPKVLIFLSSNLDSGVPARFSGSGSGTDFTLNIHPVEDGDAATYYCQHSRDLPPTFGGGTKLEIKGGGSGGGGEVKFLESGGGLVQPGGSLKLSCVASGFDFSRYWMSWVRQAPGKGLEWIGEINPDSNTINYTPSLKDKFIISRDNAKNTLYLQMTKVRSEDTALYYCTRRAYYGNPAWFAYWGQGTLVTVSAASTKGEVAACEKEVAALEKEVAALEKEVAALEKL[sequence of human IgG1 Fc with C220S (EU numbers) omitted] chain 2: DIVLTQSPASLAVSLGQRATISCRASKSVSSSGYSYMHWYQQKPGQPPKVLIFLSSNLDSGVPARFSGSGSGTDFTLNIHPVEDGDAATYYCQHSRDLPPTFGGGTKLEIKGGGSGGGGEVKFLESGGGLVQPGGSLKLSCVASGFDFSRYWMSWVRQAPGKGLEWIGEINPDSNTINYTPSLKDKFIISRDNAKNTLYLQMTKVRSEDTALYYCTRRAYYGNPAWFAYWGQGTLVTVSAASTKGKVAACKEKVAALKEKVAALKEKVAALKE",6.81,30.24,60.65,87.06,10.67,20.96,10.71,88.11,64.2,15,49.7,21,42.9,55.42,71.80,11.22,49.15,42.42,2.92,38.47,Net Gain (Average % Growth Inhibition) (MDA-MB-175VII): 15.84%; Net Gain (Average % Growth Inhibition) (786O): 27.69%; Net Gain (Average % Growth Inhibition) (MCF7): 4.00%; Net Gain (Average % Growth Inhibition) (Hs700T): 49.75%
